From PubChem BioAssay AID504332 (National Center for Advancing Translational Sciences (NCATS), 2011)
In all, about 350,000 compounds went through this assay and about 31,000 (8.9%) were called active. The inconclusive results got no clear call from the source; some entries with a clear call stand among them for comparison. Calls follow the shape of the dose curve; as a rule, active = well fitted inhibition curve with a large enough effect; inconclusive = small, poorly fitted or top-dose-only effect; inactive = no such curve, though single readings can be large or run the other way. A potency beside an inconclusive call is a rough fit, not a confirmed value.
% is scaled to controls: 0 for no effect and ±100 for the full control effect; potency is read from the fitted curve at half-maximal effect; tags tell the direction and shape of the fitted curve.
Also: nearly all actives have a fitted effect of over 75% in size.

The molecules below were run against Histone-lysine N-methyltransferase EHMT2 (Homo sapiens) (UniProt Q96KQ7) (assay: qHTS Assay for Inhibitors of Histone Lysine Methyltransferase G9a). Conditions: G9a H3K9 monomethylation, AlphaScreen, 2 h; activity, negative = inhibition: at 59 µM (top of the series) unless noted.
Sequence of UniProt Q96KQ7 (Q96KQ7 whole entry, looked up): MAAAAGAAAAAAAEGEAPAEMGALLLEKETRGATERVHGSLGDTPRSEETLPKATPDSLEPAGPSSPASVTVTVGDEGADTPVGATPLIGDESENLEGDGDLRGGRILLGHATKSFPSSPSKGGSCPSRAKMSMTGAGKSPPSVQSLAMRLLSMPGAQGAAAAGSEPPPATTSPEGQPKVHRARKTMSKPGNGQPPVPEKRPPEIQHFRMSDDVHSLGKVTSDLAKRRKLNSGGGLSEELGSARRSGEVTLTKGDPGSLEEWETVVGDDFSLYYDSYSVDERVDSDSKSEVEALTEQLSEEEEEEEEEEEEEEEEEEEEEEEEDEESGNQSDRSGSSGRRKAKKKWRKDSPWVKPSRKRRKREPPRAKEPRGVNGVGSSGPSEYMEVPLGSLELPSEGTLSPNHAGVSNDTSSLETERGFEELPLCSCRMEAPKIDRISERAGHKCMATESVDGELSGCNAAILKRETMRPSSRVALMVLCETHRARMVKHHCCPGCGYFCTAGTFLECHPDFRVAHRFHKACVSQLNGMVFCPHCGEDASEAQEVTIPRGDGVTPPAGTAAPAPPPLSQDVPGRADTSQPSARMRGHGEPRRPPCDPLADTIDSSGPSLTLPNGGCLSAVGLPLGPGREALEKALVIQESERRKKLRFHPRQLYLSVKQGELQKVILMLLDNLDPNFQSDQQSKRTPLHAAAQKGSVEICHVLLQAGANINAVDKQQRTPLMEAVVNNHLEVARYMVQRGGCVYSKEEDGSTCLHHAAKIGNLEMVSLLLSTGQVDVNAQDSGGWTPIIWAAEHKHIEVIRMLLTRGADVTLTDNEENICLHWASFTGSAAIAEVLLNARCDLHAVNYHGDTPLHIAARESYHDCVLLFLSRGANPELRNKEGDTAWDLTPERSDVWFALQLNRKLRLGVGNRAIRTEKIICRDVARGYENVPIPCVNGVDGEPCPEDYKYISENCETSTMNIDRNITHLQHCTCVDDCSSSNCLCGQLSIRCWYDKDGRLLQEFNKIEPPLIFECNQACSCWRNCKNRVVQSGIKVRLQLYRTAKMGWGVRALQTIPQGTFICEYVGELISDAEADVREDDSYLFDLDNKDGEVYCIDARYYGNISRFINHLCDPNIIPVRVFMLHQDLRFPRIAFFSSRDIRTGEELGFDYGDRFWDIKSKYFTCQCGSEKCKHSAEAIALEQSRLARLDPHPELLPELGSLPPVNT
How it was run: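 Methyltransferase reactions run at room temperature for 2 h (20 nM enzyme, 500 nM biotin-H3K9 peptide, 20 uM SAM) after a 15 min compound preincubation; product detected by AlphaScreen beads and anti-H3K9me1 antibody.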
With `COc1ccc(C(=O)N2CCC3(CC2)CCN(C(c2ccccc2)c2ccccc2)CC3)cc1` the activity, negative = inhibition was inactive: -4.21% [at 12.7 µM].
With `CC(=O)c1c(C)oc2c1C(=O)c1ccccc1C2=O` the Potency was “inactive”.
In the case of `C#CCOCCOCCOCCNc1nc(N2CCN(C(=O)[C@H](CCC(=O)O)n3cc(C(N)CC(C)C)nn3)CC2)nc(N2CCN(C(=O)[C@H](CCC(=O)O)n3cc(C(N)[C@H](C)CC)nn3)CC2)n1` (some centres not stated), the Potency is reported as “inactive”.
`N#CCSc1nc2sccc2c(=O)n1-c1ccccc1` was tested, and the Potency was inconclusive: 79.4 µM [inhibitor, single point].
`C/C(=N\O)C(C)(C)Nc1ccc(F)cc1` was tested, and the activity, negative = inhibition was inconclusive: -79.2% [inhibitor].
With `COC(C(=O)Nc1ccc(NC(=O)C(OC)c2ccccc2)cc1)c1ccccc1` (configuration not stated) the Potency was active: 50.1 µM.
With `O=C(CCS(=O)(=O)c1cc(Br)cc2c1N(C(=O)C1CC1)CC2)N1CCN(c2ccc(F)cc2)CC1` the Potency was “inactive”.
In the case of `COc1ccccc1-n1c(C)nc2cc(C(=O)NCc3ccc4c(c3)OCO4)ccc21`, the Potency is reported as inconclusive: 17.8 µM [inhibitor, partial curve].
For `CCOCCCNC(=S)N(CCN(CC)CC)Cc1cc2cc3c(cc2[nH]c1=O)OCCO3`, the Potency was “inactive”.
For `O=C(NCC(Cl)c1ccc2ccccc2c1)c1c(F)cccc1F` (configuration not stated), the Potency was inconclusive: 79.4 µM [inhibitor, partial curve, poor fit].
`O=C(NCc1ccccc1)c1ccc(/C=N/O)nc1` was tested, and the Potency was active: 10 µM.
For `Cc1ccc(C(C(=O)NC2CCCC2)N(Cc2cccnc2)C(=O)c2snc(C(N)=O)c2N)o1` (configuration not stated), the Potency was inconclusive: 89.1 µM [inhibitor, partial curve, poor fit].
With `CCn1nnc(NC(=O)c2sc3ccccc3c2Cl)n1` the Potency was inconclusive: 35.5 µM [inhibitor, single point].
`O=S(=O)(/N=C(\Sc1ccccc1)c1ccccc1)c1ccc(Cl)cc1` was tested, and the Potency was inconclusive: 6.31 µM [inhibitor, single point].
`O=C1NC(=Nc2ccccc2)S/C1=C\c1cccn1-c1ccccc1` was tested, and the Potency was inconclusive: 28.2 µM [inhibitor, single point].
For `Cc1c(C(=O)N2CCCCC2)nn(-c2ccc(Cl)cc2)c(=O)c1C#N`, the Potency was inconclusive: 89.1 µM [inhibitor, partial curve, poor fit].
With `Cc1cc(/C=C2/C(=O)N(C)C(=S)N2C)ccc1N1CCCC1` the Potency was active: 8.91 µM.
`C=CCN(CC=C)C(=O)c1c(OC)cccc1OC` was tested, and the Potency was “inactive”.
`CN(Cc1ccno1)C(=O)CC1C(=O)NCCN1CC(c1ccccc1)c1ccccc1` (configuration not stated) was tested, and the Potency was inconclusive: 44.7 µM [inhibitor, partial curve].
For `CN(Cc1ccccc1)C(=O)C1CCCN(Cc2ccc(Cl)cc2)C1` (configuration not stated), the Potency was active: 6.31 µM.
`COc1ccccc1N1CCN(C(=O)c2ccc(CSc3ccccc3)cc2)CC1` was tested, and the Potency was “inactive”.
`CCOc1ccccc1Nc1sc(C(=O)c2ccccc2)c(N)c1C(=O)NCCc1ccccc1` was tested, and the Potency was inconclusive: 35.5 µM [inhibitor, single point].
For `N#Cc1cc2c([nH]c1=S)CCCC2`, the Potency was active: 1.41 µM.
`[O-][n+]1c2c(c3c4non(O)c4ccc31)CCCC2` was tested, and the Potency was inconclusive: 31.6 µM [inhibitor, single point].
`CSC(=Nc1ccccc1)C1=C(O)COC1=O` was tested, and the Potency was inconclusive: 22.4 µM [inhibitor, single point].
For `CCN(CC)C(=O)CSC1=Nc2ccccc2C2=NC(Cc3c[nH]c4ccccc34)C(=O)N12` (configuration not stated), the Potency was inconclusive: 6.31 µM [inhibitor, single point].
`Cc1cccc(C(=O)NNC(=O)CN2C(=O)c3ccccc3C2=O)c1` was tested, and the Potency was “inactive”.
For `COc1ccccc1OCCn1c(COc2cc(C)ccc2C)nc2ccccc21`, the Potency was inconclusive: 0.891 µM [inhibitor, full curve, poor fit].
For `O=C(c1csc(Nc2ccccc2Cl)n1)N1CCCC1`, the activity, negative = inhibition was inconclusive: -125% [inhibitor].
For `O=C(CCc1ccc(S(=O)(=O)N2CCOCC2)cc1)Nc1nc(COc2ccccc2)cs1`, the Potency was inconclusive: 25.1 µM [inhibitor, partial curve, poor fit].
`CCN(CC)S(=O)(=O)c1nnc(NC(=O)c2ccccc2Cl)s1` was tested, and the Potency was inconclusive: 3.55 µM [inhibitor, partial curve, poor fit].
`COC(=O)c1ccc(C2/C(=C(\O)c3cccc(OC)c3)C(=O)C(=O)N2CCCN2CCOCC2)cc1` (configuration not stated) was tested, and the Potency was inconclusive: 39.8 µM [inhibitor, single point].
For `CCN1CCN(c2ccc(S(=O)(=O)N3CCCCC3)cc2NC(=O)c2ccccc2)CC1`, the Potency was active: 10 µM.
For `Cc1ccc(S(=O)(=O)NC(=O)c2ccc(-c3ccc(-c4ccccc4)cc3)o2)c(C)c1`, the Potency was active: 39.8 µM.
`CCN(CC)c1nc(C)c(C(C)=O)cc1C#N` was tested, and the Potency was inconclusive: 5.01 µM [inhibitor, partial curve, poor fit].
With `COc1ccc(-c2cc(C(F)(F)F)nc(SCC(=O)N(C)Cc3ccccc3)n2)cc1OC` the Potency was “inactive”.
`O=C(CCC(=O)N1CCCC1)N1CCCC1` was tested, and the Potency was inconclusive: 50.1 µM [inhibitor, partial curve].
`CC(=O)N1CCOc2cc(S(=O)(=O)NCc3ccc(C)cc3)c(C)cc21` was tested, and the Potency was “inactive”.
`Cc1ccc(/C=C2\SC(N)=NC2=O)s1` was tested, and the Potency was inconclusive: 5.62 µM [inhibitor, full curve, poor fit].
`COc1ccc(N(C(=O)c2ccccc2F)S(=O)(=O)c2ccc3c(c2)n(C)c(=O)n3C)cc1` was tested, and the Potency was “inactive”.
`Cc1ccc(C)c2sc(NC(=O)c3ccc(S(=O)(=O)N4CCCC4)cc3)nc12` was tested, and the Potency was “inactive”.
For `CCOC(=O)NC(=O)/C(C#N)=N\Nc1cccc(OC)c1`, the Potency was inconclusive: 39.8 µM [inhibitor, full curve].
With `CCCc1cc(=O)[nH]c(SCc2ccccc2)n1` the activity, negative = inhibition was inactive: -24.4% [at 12.7 µM].
In the case of `Cc1nc2c(Cl)cccc2[nH]1`, the Potency is reported as active: 56.2 µM.
In the case of `O=C(c1cc2ccc3cccnc3c2[nH]1)N1CCN(c2cccc(C(F)(F)F)c2)CC1`, the Potency is reported as “inactive”.
`COc1ccccc1CNC(=O)CN1C(=O)NC(c2ccccc2)(c2ccc(C)c(C)c2)C1=O` (configuration not stated) was tested, and the Potency was inconclusive: 70.8 µM [inhibitor, partial curve, poor fit].
With `CC1(C)C=C(c2ccc(C=O)s2)CC(C)(C)N1` the Potency was inconclusive: 39.8 µM [inhibitor, single point].
`CC1CCN(CCC(=O)Nc2nccs2)CC1` was tested, and the Potency was “inactive”.
With `CCc1ccccc1N(C(=O)c1snc(C(N)=O)c1N)C(C(=O)NCC1CCCO1)c1c[nH]c2ccccc12` (configuration not stated) the Potency was “inactive”.
For `O=C(c1ccccc1F)N1CCN(CC2CC3C=CC2C3)CC1` (configuration not stated), the Potency was inconclusive: 31.6 µM [inhibitor, single point].
`COc1ccccc1NC(=S)NC1CCCCC1` was tested, and the Potency was “inactive”.
In the case of `COc1ccc(C(=O)Oc2ccc(C(=S)N3CCCC3)cc2)cc1OC`, the Potency is reported as inconclusive: 0.631 µM [inhibitor, full curve].
With `CCOC(=O)c1cnc(SCC(=O)Nc2cc(C(F)(F)F)ccc2N2CCOCC2)nc1N` the Potency was inconclusive: 39.8 µM [inhibitor, partial curve, poor fit].
With `COc1ccc(Cl)cc1-n1c(N)c(C(N)=O)sc1=S` the Potency was active: 8.91 µM.
With `O=C(NC1CCN(Cc2ccc(Cl)cc2Cl)CC1)c1ccccc1` the Potency was inconclusive: 89.1 µM [inhibitor, single point].
With `CC(=O)Nc1ccc(NC(=O)CCc2c(C)noc2C)cc1` the Potency was inconclusive: 89.1 µM [inhibitor, single point].
For `CCCCNC(=O)CS(=O)Cc1nc(-c2cccc(Cl)c2)oc1C` (configuration not stated), the Potency was inconclusive: 89.1 µM [inhibitor, single point].
For `O=C1C(Cc2ccccc2)Nc2ncnc(N3CCOCC3)c2N1Cc1ccc(Br)cc1` (configuration not stated), the Potency was inconclusive: 6.31 µM [inhibitor, single point].
`COCCN(Cc1cc2cc(C)ccc2[nH]c1=O)S(=O)(=O)c1ccc(Cl)cc1` was tested, and the Potency was inconclusive: 89.1 µM [inhibitor, single point].
For `O=C(Nc1cccc([N+](=O)[O-])c1)C1COc2ccccc2O1` (configuration not stated), the Potency was “inactive”.
`CN(C)CCCN(C(=O)CCOc1ccccc1)c1nc2c(F)cccc2s1` was tested, and the Potency was active: 22.4 µM.
For `NNc1nc2c(Cl)cccc2s1`, the Potency was inconclusive: 28.2 µM [inhibitor, single point].
`Cc1ccccc1OCCSc1nc2ncnc(N)c2[nH]1` was tested, and the Potency was inconclusive: 3.16 µM [inhibitor, full curve, poor fit].
With `CCc1cccc2c(/C=N/NC(=O)c3cccc(S(=O)(=O)Nc4ccccc4Cl)c3)c[nH]c12` the Potency was “inactive”.
`CC1=CC(C)(C)NC(=S)N1c1ccccc1C` was tested, and the Potency was “inactive”.
`COc1ccc(NC(=O)CN2CCCN(S(=O)(=O)c3ccc(Br)cc3)CC2)c(OC)c1` was tested, and the Potency was inconclusive: 39.8 µM [inhibitor, partial curve, poor fit].
`CC(=O)Nc1ccc(S(=O)(=O)NNC(=O)COc2ccc(C(C)(C)C)cc2)cc1` was tested, and the Potency was inconclusive: 7.08 µM [inhibitor, single point].
In the case of `CCCN(C(=O)c1ccc(S(=O)(=O)N2CCCC2)cc1)C1CCS(=O)(=O)C1` (configuration not stated), the activity, negative = inhibition is reported as inactive: 7.71% [at 12.7 µM].
`Cc1nn(-c2ccccc2)c2ncc(C(=O)c3cc(Cl)ccc3O)cc12` was tested, and the Potency was active: 0.794 µM.
With `COc1ccc(-c2nc3c4cnn(-c5ccccc5F)c4ncn3n2)cc1` the Potency was “inactive”.
`CC(C)C(=O)Nc1nnc(Cc2c[nH]c3ccccc23)s1` was tested, and the Potency was “inactive”.
In the case of `CN(C(=O)CCc1nnc(CCCCc2ccccc2)o1)C1CC(C)(C)NC(C)(C)C1`, the Potency is reported as inconclusive: 39.8 µM [inhibitor, partial curve].
